The record followed here is publication PMC6919601, “Identification of Plasmodium dipeptidyl aminopeptidase allosteric inhibitors by high throughput screening” (PLoS ONE, 2019).

The whole screen tested about 110,000 compounds, of which about 230 (0.21%) showed an effect of 50% or more. The list shows a part of the results.
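Further: 30 min substrate incubation versus DMSO and 10 µM JCP410 controls.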

Chain of DPAP1 (Q8IIJ9 whole entry, looked up): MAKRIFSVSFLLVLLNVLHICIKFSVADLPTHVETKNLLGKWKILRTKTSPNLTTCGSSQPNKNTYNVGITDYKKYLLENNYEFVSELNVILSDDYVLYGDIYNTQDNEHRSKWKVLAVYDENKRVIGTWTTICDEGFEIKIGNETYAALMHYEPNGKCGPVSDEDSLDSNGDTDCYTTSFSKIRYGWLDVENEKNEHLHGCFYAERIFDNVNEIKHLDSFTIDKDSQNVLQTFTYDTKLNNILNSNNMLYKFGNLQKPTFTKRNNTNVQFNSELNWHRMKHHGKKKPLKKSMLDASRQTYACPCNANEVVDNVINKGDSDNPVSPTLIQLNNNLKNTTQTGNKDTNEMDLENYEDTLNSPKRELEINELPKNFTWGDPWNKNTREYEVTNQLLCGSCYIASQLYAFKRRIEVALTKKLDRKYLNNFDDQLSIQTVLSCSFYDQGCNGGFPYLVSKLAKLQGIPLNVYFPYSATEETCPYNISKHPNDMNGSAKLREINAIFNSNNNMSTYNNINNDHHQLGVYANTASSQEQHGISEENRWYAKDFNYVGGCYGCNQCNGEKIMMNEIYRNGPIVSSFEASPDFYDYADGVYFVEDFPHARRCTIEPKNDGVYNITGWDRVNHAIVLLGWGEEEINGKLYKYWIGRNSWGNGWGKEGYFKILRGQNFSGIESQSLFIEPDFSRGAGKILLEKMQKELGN

This experiment addresses DPAP1 (Plasmodium falciparum, UniProt Q8IIJ9). Briefly: primary screen, percent inhibition; read by cleavage of a fluorogenic dipeptide substrate; higher = more effect of the substance. Set-up: species or system P. falciparum D10 trophozoite lysates; single well.
Turning to `CN(C)c1ccc(C2C(C#N)=C(N)N(c3ccccc3)C3=C2C(=O)CC(C)(C)C3)cc1` (stereo not shown), the “% Inhibition @ 10 uM” value was 1.08%.

With `Brc1cccc(CNC2CCN(CCc3ccccc3)CC2)c1`, the “% Inhibition @ 10 uM” value is reported as -2.95%.

Take `COC(=O)c1[nH]c2ccccc2c1C=C1C(=O)N(C)C(=O)N(C)C1=O`: the “% Inhibition @ 10 uM” value worked out at 5.77%.

As to `CC(C)NCC(O)COc1ccc(C(C)C)cc1` (stereo not shown), the “% Inhibition @ 10 uM” value is given as -3.93%.

As for `O=C(O)c1ccc(NC(=O)c2cccc(C(=O)Nc3ccc(C(=O)O)cc3)c2)cc1`, the “% Inhibition @ 10 uM” value was 1.64%.

On to `O=C(O)c1cc(-c2cccc(Cl)c2)nc2ccccc12`, for which the “% Inhibition @ 10 uM” value is listed as 2.93%.

As for `N#Cc1c(N)nc2c(c1-c1cccs1)CCCC2`, the “% Inhibition @ 10 uM” value is on record as -8.28%.

As to `COc1ccccc1CNC(=O)Cn1cc2c(n1)-c1c(oc(C(=O)N3CCCC3)c1C)CC2`, the “% Inhibition @ 10 uM” value is recorded as -3.46%.

With `COc1cc(NS(=O)(=O)c2ccc(C)cc2)c2ncccc2c1`, the “% Inhibition @ 10 uM” value was -12%.

As for `COc1ccc(NC(=O)c2ccc([N+](=O)[O-])cc2C(=O)O)c([N+](=O)[O-])c1`, the “% Inhibition @ 10 uM” value is reported as -1.42%.

For `CC1(C)CC(=O)C(C(C2=C(O)CC(C)(C)CC2=O)c2ccncc2)C(=O)C1` (stereo not shown), the “% Inhibition @ 10 uM” value was 0.716%.

Consider `CC(C)(C)OC(=O)N1CCC[C@H]1C(=O)NCc1ccccc1`, for which the “% Inhibition @ 10 uM” value is recorded as 1.96%.

As for `CCCOc1ccc(Cc2nn3c(=O)/c(=C\c4cccs4)sc3nc2=O)cc1`, the “% Inhibition @ 10 uM” value is given as -4.14%.

`O=C(c1ccc(Cl)cc1)C(Oc1ccc(Cl)cc1)n1cncn1` (stereo not shown): the “% Inhibition @ 10 uM” value was -1.84%.

For the compound `CCOc1ccc(Nc2nc(-c3ccncc3)cs2)cc1`, the “% Inhibition @ 10 uM” value worked out at 5.16%.

For `CCOC(=O)c1c(NC(=O)c2cccc(C)c2)sc2c1CCC(C)C2` (stereo not shown), the “% Inhibition @ 10 uM” value was -5.9%.

On to `COC(=O)/C(=C\C(=O)c1ccccc1)Nc1ccc(OC)cc1`, for which the “% Inhibition @ 10 uM” value is -0.807%.

As to `c1ccc(CN2CCN(CC(c3ccccc3)c3ccccc3)CC2)cc1`, the “% Inhibition @ 10 uM” value is given as 4.55%.

Turning to `COc1ccc2c(Sc3ccccc3)c(C(=O)N3CCN(C)CC3)[nH]c2c1`, the “% Inhibition @ 10 uM” value is -0.229%.

Consider `O=C1NC(=O)/C(=C\c2cccn2-c2ccccc2F)N1`, for which the “% Inhibition @ 10 uM” value was 2.76%.

For `Cc1ccc(CNC(C)Cc2ccccc2)o1` (stereo not shown), the “% Inhibition @ 10 uM” value is recorded as -0.262%.

Regarding `O=C(Nc1cccc2ccccc12)c1cccnc1Cl`, the “% Inhibition @ 10 uM” value is recorded as -5.54%.

Take `CCOc1c([N+](=O)[O-])cc2c(C)c(C(=O)N3CCOCC3)oc2c1OCC`: the “% Inhibition @ 10 uM” value is recorded as -0.999%.

With `CCCc1nn2cc(-c3ccccc3)nc2s1`, the “% Inhibition @ 10 uM” value is -4.54%.

On to `CCOc1cc(C2C(C#N)=C(N)Oc3[nH]nc(C)c32)ccc1OCCN1CCOCC1` (stereo not shown), for which the “% Inhibition @ 10 uM” value is listed as 0.121%.

As to `O=S(=O)(Nc1ccc2c(c1)OCCO2)c1ccc(-c2ccccc2)cc1`, the “% Inhibition @ 10 uM” value is reported as 4.67%.

In the case of `CCc1cccc(NC(=O)c2ccc(OC(F)F)cc2)c1`, the “% Inhibition @ 10 uM” value stood at 2.4%.

With `CC(C(=O)NC1CCN(Cc2ccccc2)CC1)n1ncn2cccc2c1=O` (stereo not shown), the “% Inhibition @ 10 uM” value is listed as 0.371%.
